Test results as given in PubChem BioAssay AID463173 (ICCB-Longwood Screening Facility, Harvard Medical School, 2010).
The whole screen tested about 52,000 compounds, of which about 1,700 (3.3%) were called active. No stated cut-off is given here; in the data, active means survival mostly below about 52% (no sharp cut-off); inactive means mostly above about 56%. The list shows a part of the results.

Test system: Wild type
Experiment: growth inhibition of S. aureus wild type versus tarO mutant, primary screen, teichoic acid synthesis inhibitors, RN4220, OD600 (AID 463173)
Conditions: S. aureus RN4220 wild type/DeltatarO growth, OD600, 18 h, active compounds read low, screened at 18.75 µg/mL (by protocol)

Row | Structure (SMILES) | survival
1 | COc1cc(N2C(=O)CSC23C(=O)N(Cc2cccc(F)c2)c2ccccc23)cc(OC)c1OC (centres undefined) | inactive: 88%
2 | COc1ccc(NC(=O)c2sc3nc4c(cc3c2N)CCCCCC4)c(OC)c1 | inactive: 76%
3 | CN(C)C(=O)N1CCN(S(=O)(=O)c2ccccc2)CC1 | inactive: 109%
4 | COc1ccc(CCNC(=O)c2ccc3c(c2)CCN3S(=O)(=O)c2ccccc2)cc1OC | inactive: 103%
5 | CCOc1ccccc1NC(=O)Cn1c(=O)n(Cc2ccccc2)c(=O)c2c1c1cc(C)ccc1n2C | inactive: 72%
6 | COc1ccccc1Nc1c2c(nc3ccc(NC(=O)c4ccc(OC)c(OC)c4)cc13)CCCC2 | inactive: 68%
7 | N#Cc1cc(-c2ccc(Cl)cc2)no1 | inactive: 94%
8 | Cc1ccc(-n2ncc(C(=O)NCc3ccccc3)c2C2CCN(C(=O)OC(C)(C)C)CC2)cc1 | inactive: 69%
9 | Cc1cc(=O)n2c(C(=O)Nc3ccc(Br)cc3)c(C(=O)Nc3ccccc3)sc2n1 | inactive: 93%
10 | COc1ccccc1OCc1nnc(-c2ccccc2)o1 | inactive: 81%
11 | CCCCOC(=O)c1ccc(OC(=O)c2sc3ncn(Cc4ccccc4Cl)c(=O)c3c2C)cc1 | inactive: 57%
12 | CCN1CC2CCCC3(C1)C(=O)NC1(CCCCC1)N=C23 (centres undefined) | inactive: 120%
13 | CS(=O)c1nc(-c2cccs2)cc(-c2ccccc2)c1C#N (centres undefined) | inactive: 90%
14 | CCCc1nnc(SCC(=O)NC2CC2)n1CC | inactive: 95%
15 | Cc1ccc(Cl)cc1Nc1sc(C(=O)c2ccc(F)cc2)c(N)c1S(C)(=O)=O | inactive: 72%
16 | COc1cccc(CNC(=O)Cc2csc3nc(-c4ccccc4)cn23)c1 | inactive: 68%
17 | CCOc1ccc(CNCCCSc2nnnn2C)cc1OC | inactive: 86%
18 | O=C(CSc1nc(=O)n(Cc2ccco2)c2c1CCC2)Nc1cccc(F)c1 | inactive: 72%
19 | CCOc1ccc(NC(=O)Cn2cc(C(=O)c3ccc(OC)cc3)c(=O)c3cc4c(cc32)OCO4)cc1 | inactive: 87%
20 | Cc1ccccc1Nc1c(-c2ccc(Br)cc2O)nc2sccn12 | inactive: 74%
21 | O=C(Nc1ccc(Cl)c(-c2nc3ccccc3o2)c1)c1ccc(-c2cccc([N+](=O)[O-])c2)o1 | inactive: 62%
22 | COc1ccccc1N1CCN(C(c2ccc(Cl)cc2)c2nnc(-c3cccc(F)c3)o2)CC1 (centres undefined) | inactive: 78%
23 | CCCSc1oc(-c2ccco2)nc1S(=O)(=O)c1ccc(Cl)cc1 | inactive: 49%

Row | Structure (SMILES) | survival
24 | N#Cc1nc2ccccc2[nH]1 | inactive: 108%
25 | COc1ccccc1CNC(=O)c1cnc(N(C)C)nc1 | inactive: 85%
26 | COc1ccc(CC(=O)Nc2sc3c(c2C(=O)Nc2cccc(C)c2)CCCCC3)cc1 | inactive: 63%
27 | CC1CCn2c(nc3cc(C(=O)NCCc4ccccc4)ccc32)C1 (centres undefined) | inactive: 82%
28 | CCOc1ccc(C(=O)Nc2nc(-c3ccc(Br)cc3)ns2)cc1 | inactive: 84%
29 | COc1ccc(NC(=O)Cn2c(SCc3ccc(F)cc3)nc3cccnc32)c(OC)c1 | inactive: 81%
30 | COc1cccc(N2CCN(C(=O)c3cc4c(=O)n(Cc5cccnc5)ccc4nc3C)CC2)c1 | inactive: 75%
31 | COC(=O)C(NC(=O)CCc1c(C)nc2cc(-c3cccc(F)c3)nn2c1C)C(C)C (centres undefined) | inactive: 80%
32 | Cc1ccc2c(=O)cc(C(=O)Nc3ccc(S(=O)(=O)N4CCCCC4)cc3)oc2c1 | inactive: 87%
33 | COC(=O)c1ccccc1NC(=O)CCC(=O)N1CC(C)Sc2ccccc21 (centres undefined) | inactive: 79%
34 | CCOc1ccc(CNC(=O)Nc2ccc3c(c2)N(C)C(=O)c2ccccc2S3)cc1 | inactive: 90%
35 | COc1ccc(NC(=O)C2CCCN(c3cnccn3)C2)c(OC)c1 (centres undefined) | inactive: 113%
36 | CCC(Cc1ccccc1)NC(=O)CCS(=O)(=O)c1cc2c(cc1Cl)NC(=O)CO2 (centres undefined) | inactive: 83%
37 | CCC(C)n1c(=N)c(C(=O)NC2CCCC2)cc2c(=O)n3ccccc3nc21 (centres undefined) | inactive: 76%
38 | Cc1ccc(NC(=O)CSc2cn(CC(=O)N3CCOCC3)c3ccccc23)cc1Cl | inactive: 88%
39 | Cc1ccc(NC(=O)CN2C(=O)CSc3ccc(S(=O)(=O)N(C)C)cc32)c(C)c1 | inactive: 72%
40 | Cn1c(=O)c2nc3ccc(NC(=O)C(F)(F)F)cc3nc2n(C)c1=O | inactive: 73%
41 | Cc1ccc2c(c1)C(c1ccccc1)N(C(=O)c1ccc(S(=O)(=O)N3CCCC3)cc1)CC(=O)N2 (centres undefined) | inactive: 79%
42 | COc1ccc2sc(N(Cc3cccnc3)C(=O)c3cccs3)nc2c1 | inactive: 64%
43 | Cc1ccc(-n2ncc3c(NC4CCCC4)ncnc32)cc1 | inactive: 87%
44 | CCOC(=O)/C(C#N)=C/c1ccc(-c2ccccc2)o1 | inactive: 81%
45 | O=S(=O)(c1ccccc1)c1nnn2c1nc(N1CCN(c3ccccc3)CC1)c1cc(Cl)ccc12 | inactive: 87%
46 | COc1ccc2sc(N(Cc3cccnc3)C(=O)C3COc4ccccc4O3)nc2c1 (centres undefined) | inactive: 82%

Row | Structure (SMILES) | survival
47 | CCCn1cc(S(=O)(=O)c2ccccc2)c(=O)c2cc(F)c(N3CCCCCC3)cc21 | inactive: 80%
48 | O=C(Cn1cc2c(n1)CCCC2)Nc1cc(C(F)(F)F)ccc1Cl | inactive: 87%
49 | Cc1cc(C)cc(NC(=O)c2sc3nc4n(c(=O)c3c2C)N=C(c2ccc(F)cc2)CS4)c1 | inactive: 135%
50 | Cc1nc(SCc2ccccc2Cl)c(C#N)c(C)c1C | active: -2%
51 | O=C(Nc1ccc2nc(SCCOc3ccccc3Cl)sc2c1)c1ccco1 | inactive: 41%
52 | CCc1cccc(NC(=O)CSc2n[nH]c(-c3ccccc3Cl)n2)c1 | inactive: 87%
53 | Cc1nnc(N2CCN(c3cccc(Cl)c3)CC2)c2c1nnn2Cc1ccc(F)cc1 | inactive: 85%
54 | COc1cccc(-c2nn(C)c3sc(C(=O)NCCc4cccc(C)c4)cc23)c1 | inactive: 139%
55 | COc1ccc(C)cc1NC(=O)c1c(C(=O)Nc2cccc(C)c2C)sc2nc(C)cc(=O)n12 | inactive: 84%
56 | CCCNC(=O)Cn1ncc2c3ccccc3n(CCC)c2c1=O | inactive: 133%
57 | CCOC(=O)C1CCCN(C(=O)Cn2ncc3c(C)n(Cc4ccc(F)cc4)c(C)c3c2=O)C1 (centres undefined) | inactive: 126%
58 | CCOc1ccc(OCC)c(NC(=O)c2cnn(-c3ccc(F)cc3)c2C2CCN(C(=O)OC(C)(C)C)CC2)c1 | active: 14%
59 | C=CCn1c(C)c(/C=C/C2=CCN(C)CC2)c2ccccc21 | inactive: 112%
60 | CC1C(=O)OC(c2ccccc2)C(C)(C)C1=O (centres undefined) | inactive: 118%
61 | CCOc1ccc2c(c1)c(=O)c(C(=O)c1ccc3c(c1)OCO3)cn2Cc1cccc(F)c1 | inactive: 91%
62 | COc1ccc(-n2ccnc(NCc3cccs3)c2=O)cc1 | active: -3%
63 | CCOc1ccc(-n2c(C)nc3cc(C(=O)NCc4ccc(C)cc4)ccc32)cc1 | inactive: 99%
64 | Cc1ccc2[nH]c(=O)c(CN(CCCO)C(=O)NC3CCCCC3)cc2c1 | inactive: 104%
65 | COc1ccc(-c2ccc(-c3noc(-c4cc(OC)cc(OC)c4)n3)c(OC)n2)cc1 | inactive: 49%
66 | CCOc1ccc(-c2nnc(SCC(=O)Oc3ccccc3)o2)cc1 | inactive: 81%
67 | Cc1ccc(C(=O)Nc2nnc(S(=O)(=O)N(C)Cc3ccc(F)cc3)s2)cc1 | inactive: 47%
68 | CCn1c(=O)cc(SCC(=O)Nc2cc(Cl)ccc2OC)c2ccccc21 | inactive: 66%
69 | CC1CCCN(c2nc(-c3ccccc3O)nc3ccccc23)C1 (centres undefined) | active: -3%

Row | Structure (SMILES) | survival
70 | CCOc1cccc(C(=O)Nc2ccc(-c3nc4cc(C)cc(C)c4o3)cc2)c1 | inactive: 82%
71 | CCc1ccccc1NC(=O)Cn1nnc(C(=O)Nc2ccc(OC)c(OC)c2)c1N | inactive: 76%
72 | CCOC(=O)c1ccccc1NC(=O)c1nn(-c2ccc(C)cc2)c(=O)n(C)c1=O | inactive: 127%
73 | CCc1ccc(S(=O)(=O)N2CCN(c3ccc(Cl)c(Cl)c3)CC2)cc1 | inactive: 113%
74 | Cc1cccc(NC(=O)c2oc3ccc(S(=O)(=O)N(C)C4CCCCC4)cc3c2C)c1C | inactive: 126%
75 | CCCCN(Cc1ccco1)C(=O)c1cc2c(s1)-c1c(C)cccc1OC2 | active: 13%
76 | Cc1cccc(OCCOCCn2c(-c3ccc(Cl)cc3)nc3ccccc3c2=O)c1C | inactive: 67%
77 | Cc1c(NC(=O)C(F)(F)F)ccc2nc3c(=O)n(C)c(=O)n(C)c3nc12 | inactive: 85%
78 | COc1c(Cl)cc(Cl)cc1/C=C(\C#N)c1nc(-c2ccc(Cl)cc2)cs1 | inactive: 148%
79 | CCOCCCNC(=O)Cn1cc2c(n1)-c1c(oc(C(=O)N3CCCC3)c1C)CC2 | inactive: 85%
80 | CCc1ccccc1NC(=O)c1cnn(-c2ccc(F)cc2)c1C1CCNCC1 | inactive: 73%
81 | COc1ccc(-n2ncc(C(=O)NCCCN3CCCCC3)c2C2CCN(C(=O)OC(C)(C)C)CC2)cc1 | inactive: 69%
82 | COc1ccc(-c2cc(-c3ccc4c(c3)NC(=O)CO4)nc3c2COc2ccc(C)cc2-3)cc1 | inactive: 77%
83 | Cc1ccc(C(C)C)c(OCCCn2c(=O)oc3ccc(C)cc32)c1 | active: -10%
84 | Cc1cc(C)c(S(=O)(=O)N2CCC(N3CCN(Cc4ccc(F)cc4)C(=O)C3=O)CC2)c(C)c1 | inactive: 75%
85 | CC(C)c1ccc(NC(=O)c2cnn3c(C(F)F)cc(-c4ccccc4)nc23)cc1 | inactive: 83%
86 | Cc1ccccc1NC(=O)c1ccc(F)c(S(=O)(=O)N2CCc3ccccc3C2)c1 | inactive: 55%
87 | COC(=O)Cn1ccc2cc(S(=O)(=O)N3CCCCC3)ccc21 | inactive: 95%
88 | Cc1ccc(C)c(N2CCN(C(=O)C3CCC(CNS(=O)(=O)c4ccc(Br)s4)CC3)CC2)c1 (centres undefined) | inactive: 76%
89 | O=C(O)COc1ccccc1C1Nc2ccccc2-c2nnc(SCc3ccc(Cl)cc3)nc2O1 (centres undefined) | inactive: 68%
